IC50 is the fitted dose that halves viability relative to control wells, and lower means more sensitive; fits outside the tested doses are given as limits. The AUC spans the tested range (256-fold, ending at the top dose) of the same fit; it is 1 without any effect and falls as sensitivity rises. The top dose, if marked as inferred, was calculated from the reported fits.
Tests used:
LY317615 = compound: Cn1cc(C2=C(c3cn(C4CCN(Cc5ccccn5)CC4)c4ccccc34)C(=O)NC2=O)c2ccccc21 [LY317615]; experiment: Viability of human cancer cell lines after 72 h of drug (GDSC screen); details: top dose inferred
Protocol: (§1)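 Human cancer cell lines in 384-well plates, medium with 10% serum, drug for 72 h over a 256-fold dose range (nine 2-fold or five 4-fold steps up to the top dose). Adherent lines were fixed and stained with the nucleic acid dye Syto60, suspension lines read with resazurin; signal relative to control wells, capped at 0 and 100%. One two-parameter sigmoid per drug and line, fitted in a mixed model over all curves with the slope shared within a line.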

SN-38 = compound: CCc1c2c(nc3ccc(O)cc13)-c1cc3c(c(=O)n1C2)COC(=O)[C@]3(O)CC [SN-38]; experiment: as above; details: top dose 0.05 µM; top dose inferred
Protocol: as §1

Cell Line	AUC (LY317615)	IC50 (LY317615)	AUC (SN-38)	IC50 (SN-38)
8-MG-BA (glioma, adherent, top dose 20 µM)	0.876	17.8 µM		
22RV1 (prostate, adherent, top dose 20 µM)	0.874	> 20 µM		
42-MG-BA (glioma, adherent, top dose 20 µM)	0.925	> 20 µM		
201T (lung adenocarcinoma, adherent, top dose 20 µM)	0.688	4.86 µM		
451Lu (melanoma, adherent, top dose 20 µM)	0.974	> 20 µM		
639-V (bladder, adherent, top dose 20 µM)	0.989	> 20 µM		
647-V (bladder, adherent, top dose 20 µM)	0.982	> 20 µM		
697 (lymphoblastic leukaemia, suspension, top dose 20 µM)	0.296	0.383 µM		
769-P (kidney, adherent, top dose 20 µM)	0.366	0.515 µM		
786-0 (kidney, adherent, top dose 20 µM)	0.584	2.07 µM		
5637 (bladder, adherent, top dose 20 µM)	0.771	6.93 µM		
8305C (thyroid, adherent, top dose 20 µM)	0.98	> 20 µM		
8505C (thyroid, adherent, top dose 20 µM)	0.908	> 20 µM		
23132-87 (stomach, adherent, top dose 20 µM)	0.971	> 20 µM		
A3-KAW (B-cell lymphoma, suspension, top dose 20 µM)	0.764	5.91 µM		
A4-Fuk (B-cell lymphoma, suspension, top dose 20 µM)	0.873	> 20 µM		
A101D (melanoma, adherent, top dose 20 µM)	0.907	> 20 µM		
A172 (glioma, adherent, top dose 20 µM)	0.942	> 20 µM		
A204 (rhabdomyosarcoma, adherent, top dose 20 µM)	0.774	10.3 µM		
A253 (head and neck, adherent, top dose 20 µM)	0.913	> 20 µM		
A375 (melanoma, adherent, top dose 20 µM)	0.922	> 20 µM		
A388 (skin, adherent, top dose 20 µM)	0.966	> 20 µM		

Cell Line	AUC (LY317615)	IC50 (LY317615)	AUC (SN-38)	IC50 (SN-38)
A427 (non-small cell lung carcinoma, adherent, top dose 20 µM)	0.938	> 20 µM		
A431 (skin, adherent, top dose 20 µM)	0.637	2.94 µM		
A498 (kidney, adherent, top dose 20 µM)	0.857	> 20 µM		
A673 (rhabdomyosarcoma, adherent, top dose 20 µM)	0.99	> 20 µM		
A704 (kidney, adherent, top dose 20 µM)	0.939	> 20 µM		
A2058 (melanoma, adherent, top dose 20 µM)	0.778	7.19 µM		
A2780 (ovary, semi-adherent, top dose 20 µM)	0.726	5.64 µM		
ABC-1 (lung adenocarcinoma, adherent, top dose 20 µM)	0.928	> 20 µM		
ACHN (kidney, adherent, top dose 20 µM)	0.878	> 20 µM		
AGS (stomach, adherent, top dose 20 µM)	0.963	> 20 µM		
ALL-PO (lymphoblastic leukaemia, suspension, top dose 20 µM)	0.417	0.729 µM		
ALL-SIL (T-cell leukaemia, suspension, top dose 20 µM)	0.445	0.907 µM		
AM-38 (glioma, semi-adherent, top dose 20 µM)	0.944	> 20 µM		
AMO-1 (haematopoietic neoplasm, suspension, top dose 20 µM)	0.827	9.93 µM		
AN3-CA (endometrium, adherent, top dose 20 µM)	0.964	> 20 µM		
ARH-77 (myeloma, suspension, top dose 20 µM)	0.836	12.6 µM		
ASH-3 (thyroid, adherent, top dose 20 µM)	0.988	> 20 µM		
ATN-1 (T-cell lymphoblastic leukaemia, suspension, top dose 20 µM)	0.474	1.07 µM		
AU565 (breast, adherent, top dose 20 µM)	0.768	8.31 µM		
AsPC-1 (pancreas, adherent, top dose 20 µM)	0.762	12.8 µM		
BB30-HNC (head and neck, adherent, top dose 20 µM)	0.871	18.2 µM		
BB49-HNC (head and neck, adherent, top dose 20 µM)	0.973	> 20 µM		

Cell Line	AUC (LY317615)	IC50 (LY317615)	AUC (SN-38)	IC50 (SN-38)
BB65-RCC (kidney, adherent, top dose 20 µM)	0.709	5.38 µM		
BC-1 (B-cell lymphoma, suspension, top dose 20 µM)	0.836	10.6 µM		
BC-3 (B-cell lymphoma, suspension, top dose 20 µM)	0.922	> 20 µM		
BCPAP (thyroid, adherent)			0.599	0.00567 µM
BCPAP (thyroid, adherent, top dose 20 µM)	0.805	8.95 µM		
BE2-M17 (neuroblastoma, adherent, top dose 20 µM)	0.987	> 20 µM		
BE-13 (lymphoblastic leukaemia, suspension, top dose 20 µM)	0.554	1.74 µM		
BEN (non-small cell lung carcinoma, adherent, top dose 20 µM)	0.984	> 20 µM		
COLO-205 (large intestine, suspension)			0.951	> 0.05 µM
HCC1599 (breast, suspension)			0.441	0.0021 µM
HCE-4 (oesophagus, adherent)			0.377	0.00151 µM
HPAC (pancreas, adherent)			0.933	> 0.05 µM
HSC-3 (head and neck, adherent)			0.398	0.00171 µM
Hs940-T (melanoma, adherent)			0.757	0.0207 µM
IM-95 (stomach, adherent)			0.928	> 0.05 µM
LB996-RCC (kidney, adherent)			0.541	0.00411 µM
NCI-H1650 (lung adenocarcinoma, adherent)			0.863	> 0.05 µM
NCI-H2228 (lung adenocarcinoma, adherent)			0.781	0.0331 µM
SK-MEL-28 (melanoma, adherent)			0.915	> 0.05 µM
T-24 (bladder, adherent)			0.448	0.00227 µM
VM-CUB-1 (bladder, adherent)			0.33	0.00107 µM

From the supplement of paper PMC4967469
